Assay results reported in ChEMBL document CHEMBL4888484, “Replenishing the malaria drug discovery pipeline: Screening and hit evaluation of the MMV Hit Generation Library 1 (HGL1) against asexual blood stage Plasmodium falciparum ,using a nano luciferase reporter read-out” (2022).
The campaign covered roughly 150,000 compounds. About 540 (0.36%) showed an effect of 50% or more. The list shows a part of the results.

Tested on: Plasmodium falciparum
Test: Primary screen in NF54 nanoGlo assay, in single point, at 2uM, 72h; a lower Z score goes with more inhibition
Format: functional, Erythrocyte
Settings: timepoint 72 hour

SMILES | % Inhibition | Z score
CCOC(=O)N1CCN([C@H]2CCCN(C(=O)c3ccc4[nH]c(C)c(C)c4c3)C2)CC1 | -15% | 2.7
C[C@@H](Cc1cc2ccccc2o1)NC(=O)C1CCOCC1 | -14% | 2.34
CCCn1nc(C(=O)N2CCCc3c(Cl)ccc(F)c32)ccc1=O | -2% | 0.21
CN(Cc1csc(-c2ccccc2)n1)C(=O)Cn1nnnc1CN1CCOCC1 | -6% | 0.92
Cc1nnsc1CNC(=O)c1cc(N)[nH]n1 | -15% | 1.3
COc1cccc(NC(=O)N2CCS(=O)(=O)CC2)n1 | -14% | 2.62
COc1ccc(CC(=O)N2CCC3(CC2)C(=O)NCCCN3C)cc1OC | -1% | 0.08
CC1CCN(c2nc3c(c(N4CCCC4)n2)CN(C(=O)NCc2ccccc2)CC3)CC1 | 3% | -0.44
C[C@@H](C(=O)N1CCC(O)(c2ccnn2C)CC1)c1ccccc1 | 0% | -0.09
Cc1c(C)n(C[C@@H](O)Cn2cnc3ccccc32)c2ccc(F)cc12 | -1% | 0.11
CC(C)N1CCC(C(=O)N2CCCC[C@H]2c2nc3ccccc3[nH]2)CC1 | -4% | 0.41
N#CC1CCN(C(=O)N[C@H]2CCCC[C@@H]2c2ccccc2)CC1 | 0% | -0.02
Cn1nc2n(c1=O)CCN(C(=O)Cc1ccccc1O)C2 | -2% | 0.38
COCCN(CCOC)S(=O)(=O)N(C[C@@H](O)CC(C)(C)C)C1CCN(C)CC1 | -5% | 0.72
COc1ncccc1CNC(=O)N1CCC[C@H]1c1ccc(C)o1 | -7% | 1.17
Cn1cc(Cl)cc1C(=O)N1CCN(Cc2ccccc2F)C(=O)C1 | -2% | 0.24
O=C(NCc1csc(N2CCOCC2)n1)N1CC(Oc2ccccc2F)C1 | -10% | 1.21
CN(C(=O)[C@@H]1COCCO1)C1CCC(CO)CC1 (stereo partly drawn) | -6% | 1
O=C(C1CCCCN1C(=O)C1Cc2ccccc2O1)N1CCOCC1 (stereo not drawn) | -14% | 1.88
Cc1scc(C(=O)N2CC(C(=O)N(C)C)CCC2C(=O)O)c1C (stereo not drawn) | -1% | 0.24
O=S(=O)(c1ccccc1)N1CC[C@H](c2ccc3c(c2)CCO3)C1 | -15% | 1.78
CCc1ccc(NCn2nc(C)cc2C)cc1 | -3% | 0.41
CCOCC(=O)N[C@H]1CCN(C2CCCCCC2)C1 | -2% | 0.28
CC(NCC1(C(O)C(C)C)CC1)c1cncc(F)c1 (stereo not drawn) | -10% | 1.43
